Source: the antibiotic and cytotoxicity screens of Wong et al. (2023)
Some of the results follow.

Legend:
[1] = test system: HSkMC (human skeletal muscle cells); test: cytotoxicity call (relative viability < 0.9); settings: 10 µM
[2] = test system: HepG2; test: cytotoxicity call (relative viability < 0.9); settings: 10 µM
[3] = test system: S. aureus RN4220; test: growth inhibition call (relative growth <= 0.2); settings: 50 µM

Structure (SMILES)	cytotoxicity call [1]	cytotoxicity call [2]	growth inhibition call [3]
C[C@H]1CN([C@@H](C)CO)C(=O)c2cc(NS(C)(=O)=O)ccc2O[C@H]1CN(C)C(=O)Nc1ccc(F)cc1	inactive	inactive	inactive
C[C@H](CO)N1C[C@H](C)[C@H](CN(C)C(=O)Nc2cccc3ccccc23)OCCCC[C@H](C)Oc2ccc(NC(=O)Nc3ccc4c(c3)OCO4)cc2C1=O	inactive	inactive	inactive
C[C@@H]1CN([C@H](C)CO)C(=O)c2cc(NC(=O)NC3CCCCC3)ccc2O[C@H]1CN(C)Cc1ccc(Oc2ccccc2)cc1	inactive	inactive	inactive
c1ccc([C@@H]2Oc3ccccc3[C@@H]3Oc4ccccc4C[C@@H]23)cc1	inactive	inactive	inactive
C[C@@H]1CN([C@H](C)CO)C(=O)c2cc(NC(=O)Nc3ccc(C(F)(F)F)cc3)ccc2O[C@H]1CN(C)S(=O)(=O)c1ccc(F)cc1	active	active	inactive
CCOC(=O)CNc1nnc(N)[nH]1	inactive	inactive	inactive
C[C@@H]1CN([C@H](C)CO)C(=O)c2cc(C#CC3(O)CCCC3)cnc2O[C@H]1CN(C)S(=O)(=O)c1ccc(F)cc1	inactive	inactive	inactive
Cl.NC1CCN(c2c(F)cc3c(=O)c(C(=O)O)cn(C4CC4)c3c2Cl)C1 (stereo not drawn)	inactive	inactive	active
Cc1ccccc1S(=O)(=O)N1C[C@@H](O)COC[C@H]2O[C@H](CC(=O)N3CCN(C)CC3)CC[C@@H]21	inactive	inactive	inactive
C[C@@H]1CN([C@@H](C)CO)C(=O)c2cc(NC(=O)NC3CCCCC3)ccc2O[C@@H](C)CCCCO[C@H]1CN(C)C(=O)NC1CCCCC1	inactive	inactive	inactive
C[C@@H]1CN([C@H](C)CO)S(=O)(=O)c2ccc(C#CC3(O)CCCC3)cc2O[C@H]1CN(C)C(=O)Nc1ccccc1	inactive	inactive	inactive
C[C@@H]1CCCCO[C@H](CN(C)S(=O)(=O)c2cccs2)[C@H](C)CN([C@H](C)CO)C(=O)c2cc(NS(C)(=O)=O)ccc2O1	inactive	inactive	inactive
Cc1noc(C)c1S(=O)(=O)Nc1ccc2c(c1)C(=O)N([C@H](C)CO)C[C@@H](C)[C@@H](CN(C)S(=O)(=O)c1ccccc1)O2	inactive	inactive	inactive
O=C(NCc1ccccc1)C1=C[C@H](c2ccc(Br)cc2)C[C@H](OCc2ccc(CO)cc2)O1	inactive	inactive	inactive
O=C(Nc1ccc(-c2nc3cc(NC(=O)c4ccccc4[N+](=O)[O-])ccc3o2)cc1)c1ccccc1[N+](=O)[O-]	inactive	active	inactive
COc1ccc(NC(=O)Nc2ccc3c(c2)C(=O)N([C@@H](C)CO)C[C@@H](C)[C@H](CN(C)S(=O)(=O)c2c(C)noc2C)OCCCC[C@@H](C)O3)cc1	inactive	inactive	inactive
Cc1cc(-n2c(=O)[nH]c(=O)n(C)c2=O)ccc1Oc1ccc(SC(F)(F)F)cc1	inactive	inactive	inactive
O=C(c1ccc(S(=O)(=O)N2CCOCC2)o1)N1CCC(O)CC1	inactive	inactive	inactive
C[C@H]1CN([C@@H](C)CO)S(=O)(=O)c2ccc(Br)cc2O[C@H]1CN(C)C(=O)CCN1CCCCC1	inactive	inactive	inactive
CN(C)C(=O)C[C@H]1CC[C@H](NC(=O)C2CCOCC2)[C@@H](CO)O1	inactive	inactive	inactive
C[C@H](CO)N1C[C@H](C)[C@@H](CN(C)Cc2ccc(C(=O)O)cc2)OCCCC[C@H](C)Oc2ccc(NS(=O)(=O)c3ccc(F)cc3)cc2C1=O	inactive	inactive	inactive
C[C@@H]1CN([C@@H](C)CO)C(=O)Cc2cc(NC(=O)Nc3cccc4ccccc34)ccc2O[C@H]1CN(C)CC1CCCCC1	inactive	inactive	inactive
C[C@H]1CN([C@@H](C)CO)C(=O)Cc2cc(NC(=O)Nc3ccc(C(F)(F)F)cc3)ccc2O[C@H]1CN(C)Cc1ccc(C(=O)Nc2ccccc2N)cc1	inactive	active	inactive
C[C@@H]1CCCCO[C@H](CN(C)Cc2ccccc2)[C@H](C)CN([C@@H](C)CO)C(=O)c2cc(NC(=O)c3ccncc3)ccc2O1	inactive	inactive	inactive
N=C(N)NC[C@H]1COC2(CCCCC2)O1	inactive	inactive	inactive
C[C@H](CO)N1C[C@H](C)[C@@H](CN(C)S(=O)(=O)c2ccc(F)cc2)Oc2cc(Br)ccc2S1(=O)=O	inactive	inactive	inactive
